Laboratory results from the RNAGym collection of RNA variant scans (doi:10.7554/elife.90254).
The source gives no read counts; variants with many changes may rest on few reads.

B1: LINE1-mini (parent)
chain: GGCAGAGCUCAACACAGCGUGGCAAAGUGGCUGUGGCUAGACUGCC

Variants of: B1
Assay: self-cleavage, relative activity (ratio to wild type); higher = more cleavage; in vitro, sequencing; the parent is a self-cleaving ribozyme
C3U G5U G30A C45A showed a self-cleavage of 0.02.
A4C A14C G33U gave a self-cleavage of 0.02.
Variant C3U U9C A16G has a self-cleavage of 0.98.
C3U G36A A41G gave a self-cleavage of 0.13.
C3U G33U G44A gave a self-cleavage of 0.09.
C3U G5C A11G C23A C46U showed a self-cleavage of 0.03.
In the case of C3U G5A C18G, the self-cleavage is reported as 0.05.
With C3U G30U G33U the self-cleavage was 0.09.
Variant C3U U28A G35U has a self-cleavage of 0.13.
For C3U G5A U28A, the self-cleavage was 0.03.
C3U G22C C37A C46G gave a self-cleavage of 0.03.
Work on C3U U9C C10U G36C yielded a self-cleavage of 0.05.
With C3U G29U G30A the self-cleavage was 0.97.
C3U G7C G27A gave a self-cleavage of 0.07.
With C3U G27U U32A C42A U43A the self-cleavage was 0.05.
With A4C A14C C15U A26G C42A the self-cleavage was 0.02.
C3U U9A U34A showed a self-cleavage of 0.07.
In the case of A4C A12C G27C G36U, the self-cleavage is reported as 0.01.
C3U G17U G40U G44U gave a self-cleavage of 0.02.
For C3U G5A G7C A12C, the self-cleavage was 0.05.
For C3U U28A U34A, the self-cleavage was 0.05.
Variant C3U G29A C45G has a self-cleavage of 0.07.
C3U G21A G29U showed a self-cleavage of 1.14.
Work on C3U G5U U38G C45G yielded a self-cleavage of 0.07.
Variant C3U G7U U9A C13U U20A U34C C37U has a self-cleavage of 0.15.
Variant C3U G7A C18A C31U C37U has a self-cleavage of 0.02.
In the case of C3U G7A A12G G19U A25G, the self-cleavage is reported as 0.05.
For A4C A6C A12C U32A A39U, the self-cleavage was 0.02.
With C3U U9G A12U G19A U28C U38C G40C C42A the self-cleavage was 0.02.
In the case of C3U G7U A14G, the self-cleavage is reported as 0.38.
For C3U G17A G29A, the self-cleavage was 0.21.
Variant C3U G5U G7C G33U has a self-cleavage of 0.02.
Variant A4C A11G A39C has a self-cleavage of 0.01.
Work on C3U G7C A14G A25U G29U yielded a self-cleavage of 0.07.
Variant A4C A14C C45G C46U has a self-cleavage of 0.05.
C3U G7A U32C C46G gave a self-cleavage of 0.14.
With C3U G29U G35U the self-cleavage was 0.18.
With C3U G7C A16U C37U the self-cleavage was 0.02.
C3U G7C C18G G19A A24C G27U gave a self-cleavage of 0.03.
Variant C3U G5U A26U has a self-cleavage of 0.07.
C3U G5U C10A G27U G33A showed a self-cleavage of 0.03.
C3U C31U U34A showed a self-cleavage of 0.04.
In the case of C3U G17A U38A, the self-cleavage is reported as 0.12.
In the case of C3U U9A A16C G27C U32G G33A, the self-cleavage is reported as 0.13.
Variant C3U G27C U34G G36A has a self-cleavage of 0.02.
For C3U G27U A39U, the self-cleavage was 0.06.
With C3U U9A A12G C18G U20A G29U the self-cleavage was 0.02.
Work on A4C A12U A26G U43A yielded a self-cleavage of 0.06.
C3U G19U A26U A39C gave a self-cleavage of 0.19.
In the case of C3U G17U G21A G22A G36U U43C, the self-cleavage is reported as 0.02.
Variant A4C A6G A26U C31U A41U has a self-cleavage of 0.01.
With A4C A11G G36U the self-cleavage was 0.02.
With C3U U20G G27C the self-cleavage was 0.07.
Variant C3U U20G G27U has a self-cleavage of 0.19.
C3U G22A A24U G36U C37A C42U gave a self-cleavage of 0.02.
C3U G33U U34C A41C showed a self-cleavage of 0.07.
In the case of A4C A12G G29A G30C, the self-cleavage is reported as 0.17.
Work on C3U G22C U32C yielded a self-cleavage of 0.02.
Variant C3U G17A G36U has a self-cleavage of 0.08.
With C3U G35C C45G the self-cleavage was 0.05.
C3U G5A C42U showed a self-cleavage of 0.11.
For C3U U9C A39U U43G, the self-cleavage was 0.
Work on C3U G5C C8G A14C G40U yielded a self-cleavage of 0.07.
For C3U C31U C42A, the self-cleavage was 0.
C3U G5U G22U G40A showed a self-cleavage of 0.07.
Variant C3U G21U A41C has a self-cleavage of 0.03.
For C3U G5C A26C G30C C31G G33U U43A, the self-cleavage was 0.02.
C3U G21U U32G gave a self-cleavage of 0.14.
In the case of A4C A14U G30C, the self-cleavage is reported as 0.12.
With A4C A6U C8A A25U the self-cleavage was 2.92.
Work on A4C A6G A14U U32G yielded a self-cleavage of 0.08.
C3U U9A U38C showed a self-cleavage of 0.03.
For C3U G5U G19U G29A G30A, the self-cleavage was 0.13.
For A4C A16C G22U G29C, the self-cleavage was 0.26.
With C3U G7U G19C G30C the self-cleavage was 0.06.
C3U C23G C42G showed a self-cleavage of 0.02.
Work on C3U G35C G44A yielded a self-cleavage of 0.06.
A4C A6U C10A G17A U32C showed a self-cleavage of 0.01.
A4C A12G U20C C23U C31U A41C showed a self-cleavage of 0.05.
Work on A4C A14G C31A G33U yielded a self-cleavage of 0.02.
Variant C3U G21A U38G G44C has a self-cleavage of 0.05.
With A4C A12G G35C the self-cleavage was 0.02.
C3U G5U G44A showed a self-cleavage of 0.06.
